Structures are written as SMILES. Screen size: about 310,000 compounds; about 2,200 (0.71%) showed an effect of 50% or more. Effects have a minus sign here. The list shows a part of the results.

Experimental findings from PMC4336329 (PLoS ONE, 2015) are described below.

The target in the assay is human ether-à-go-go-related gene (hERG) potassium channel (human, UniProt Q12809). The assay is described as follows: primary screen, population patch clamp on CHO cells stably expressing hERG.
Chain of human ether-à-go-go-related gene (hERG) potassium channel (Q12809 whole entry, looked up): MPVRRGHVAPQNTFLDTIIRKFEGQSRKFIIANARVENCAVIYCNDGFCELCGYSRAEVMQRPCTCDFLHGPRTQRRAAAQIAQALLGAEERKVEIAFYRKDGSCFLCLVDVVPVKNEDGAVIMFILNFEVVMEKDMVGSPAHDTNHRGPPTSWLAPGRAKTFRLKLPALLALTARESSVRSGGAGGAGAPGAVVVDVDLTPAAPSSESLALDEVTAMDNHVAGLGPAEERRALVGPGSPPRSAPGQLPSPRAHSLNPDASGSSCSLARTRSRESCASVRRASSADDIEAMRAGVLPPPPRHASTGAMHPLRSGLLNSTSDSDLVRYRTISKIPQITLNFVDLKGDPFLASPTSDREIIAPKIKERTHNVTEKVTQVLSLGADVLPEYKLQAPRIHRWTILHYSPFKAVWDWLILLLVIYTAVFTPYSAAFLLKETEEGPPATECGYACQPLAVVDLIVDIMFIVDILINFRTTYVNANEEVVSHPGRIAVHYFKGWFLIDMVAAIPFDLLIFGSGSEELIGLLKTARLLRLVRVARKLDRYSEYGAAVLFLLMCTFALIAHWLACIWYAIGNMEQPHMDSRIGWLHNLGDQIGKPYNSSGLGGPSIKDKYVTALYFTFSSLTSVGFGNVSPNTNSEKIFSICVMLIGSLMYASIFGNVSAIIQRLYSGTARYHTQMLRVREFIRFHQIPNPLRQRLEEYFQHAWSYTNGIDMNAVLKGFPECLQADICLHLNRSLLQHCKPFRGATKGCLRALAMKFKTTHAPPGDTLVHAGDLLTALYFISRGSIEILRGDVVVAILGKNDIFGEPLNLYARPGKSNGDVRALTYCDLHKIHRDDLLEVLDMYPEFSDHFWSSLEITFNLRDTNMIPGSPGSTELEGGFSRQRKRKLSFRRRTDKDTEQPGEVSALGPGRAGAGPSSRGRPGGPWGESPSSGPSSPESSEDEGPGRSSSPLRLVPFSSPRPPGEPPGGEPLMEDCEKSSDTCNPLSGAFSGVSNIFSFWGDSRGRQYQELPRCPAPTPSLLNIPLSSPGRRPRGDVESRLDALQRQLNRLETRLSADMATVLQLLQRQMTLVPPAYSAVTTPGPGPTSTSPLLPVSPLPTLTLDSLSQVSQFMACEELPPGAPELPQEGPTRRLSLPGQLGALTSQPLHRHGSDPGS
Turning to `COc1ccc(C2=NN(C(=O)c3cccs3)C(c3ccccc3O)C2)cc1` (stereo not shown), the “hERG current change (%, negative = inhibition) at 1uM” value was determined as 3.31%.

Take `COc1cc2c(cc1NC(=O)CSc1nc3ccc(C)cc3[nH]1)oc1ccccc12`: the “hERG current change (%, negative = inhibition) at 1uM” value is 2.54%.

Regarding `O=c1nc(SCc2c(F)cccc2Cl)nc(-c2ccc(Cl)cc2)[nH]1`, the “hERG current change (%, negative = inhibition) at 1uM” value came out at 14%.

With `CCOC(=O)CN1C(=O)S/C(=C/c2cc(C)n(C)c2C)C1=O`, the “hERG current change (%, negative = inhibition) at 1uM” value is 9.27%.

For `CC(C)CCNC(=O)Cc1ccc(Nc2nc(=S)[nH]c3ccccc23)cc1`, the “hERG current change (%, negative = inhibition) at 1uM” value was found to be 8.18%.

Regarding `Cc1c(NC(=O)c2cc(-c3cccs3)nc3ccccc23)c(=O)n(-c2ccccc2)n1C`, the “hERG current change (%, negative = inhibition) at 1uM” value is -10.7%.

`O=C(O)C(=O)O.c1ccc(CNCCc2ccc3c(c2)OCO3)nc1`: the “hERG current change (%, negative = inhibition) at 1uM” value is on record as -5.34%.

For `CCOC(=O)c1cc2cc([N+](=O)[O-])ccc2oc1=O`, the “hERG current change (%, negative = inhibition) at 1uM” value is -0.472%.

Regarding `Cc1nn(C(=O)N2CCOCC2)c(C)c1C`, the “hERG current change (%, negative = inhibition) at 1uM” value is given as 18.2%.

With `COCCn1c(SCC(=O)c2[nH]c(C)c(C(C)=O)c2C)nc2ccccc2c1=O`, the “hERG current change (%, negative = inhibition) at 1uM” value worked out at 3.05%.

`Nc1c(Br)cc2oc(-c3ccccc3)nc2c1Br`: the “hERG current change (%, negative = inhibition) at 1uM” value is recorded as 10.8%.

In the case of `COc1ccc(-c2cc(N)n(S(=O)(=O)c3ccc(C)cc3)n2)c(OC)c1`, the “hERG current change (%, negative = inhibition) at 1uM” value came to 11.1%.

Take `Cc1nnc(-n2cnc3ccccc32)c2ccccc12`: the “hERG current change (%, negative = inhibition) at 1uM” value amounted to 4%.

Consider `Cc1ccccc1-c1nnc(NC(=O)c2ccc(N3C(=O)CCC3=O)cc2)s1`, for which the “hERG current change (%, negative = inhibition) at 1uM” value was 18.5%.

For `Cc1oc(CC(C)C)c(CN)c1C(=O)O.Cl`, the “hERG current change (%, negative = inhibition) at 1uM” value is on record as -3.98%.

`CCc1ccc(N2CN(Cc3cccnc3)CNC2=S)cc1`: the “hERG current change (%, negative = inhibition) at 1uM” value came to 3.68%.

On to `O=C(COc1ccc2oc(-c3ccccc3)cc(=O)c2c1)Nc1ccccc1`, for which the “hERG current change (%, negative = inhibition) at 1uM” value is 5%.

On to `O=C(CN1CCOCC1)Nc1cc(Cl)ccc1Cl`, for which the “hERG current change (%, negative = inhibition) at 1uM” value is given as -24.5%.

As for `CCOc1cc(/C=N/NC(=O)Cn2nc([N+](=O)[O-])cc2C)cc(Br)c1OCc1ccccc1F`, the “hERG current change (%, negative = inhibition) at 1uM” value is 10.7%.

As for `Cc1cc(C)cc(OCCNC(=O)C2CCN(S(=O)(=O)c3ccccc3)CC2)c1`, the “hERG current change (%, negative = inhibition) at 1uM” value is recorded as -0.855%.

On to `CC1Cc2ccccc2N1C(=O)c1ccc(Br)o1` (stereo not shown), for which the “hERG current change (%, negative = inhibition) at 1uM” value came to 7.47%.

`COc1cc(CN=C(C)c2c(O)n(C3CCCCC3)c(=O)[nH]c2=O)cc(OC)c1`: the “hERG current change (%, negative = inhibition) at 1uM” value is 18.2%.

Turning to `CCOC(=O)CCCCC(=O)c1[nH]c(=O)[nH]c1CN1CCOCC1`, the “hERG current change (%, negative = inhibition) at 1uM” value worked out at 15.4%.

In the case of `O=C(COC(=O)c1cccnc1Cl)NCCc1ccccc1`, the “hERG current change (%, negative = inhibition) at 1uM” value is on record as 13.7%.

For the compound `CC1(C)CC(=O)c2sc(N)nc2C1`, the “hERG current change (%, negative = inhibition) at 1uM” value was 1.79%.
